Data as given in patent US20220073613A1, “ACTIVATABLE MASKED ANTI-CTLA4 BINDING PROTEINS” (Xilio Development, Inc., priority 2018, published 2022).

Legend:
[1] = In vivo cleavage of masked antibodies in plasma of MC38 tumor-bearing mice, Western blot; design: species or system C57BL/6J mice; conditions: MC38-bearing mice, 200 μg i.p., days 2, 4, 7
Experimental: MC38 cells (1×10^6) were injected subcutaneously into seven-eight week old female C57BL/6J mice subcutaneously. On day 0, the mice were randomized based on tumor volume measurements and injected intraperitoneally with 200 μg of Antibody 2 constructs. Blood was collected via RO sinus on days two and four and processed with LiHep for plasma isolation. On day seven, blood was collected via cardiac puncture and process with LiHep for plasma isolation. Plasma was aliquoted and stored at −80 C until Western blot analysis. Standard samples where the masked antibody was treated in the presence or absence of protease in vitro were included as positive controls. For Western blot analysis, plasma samples were diluted in PBS, then in Laemmli Sample Buffer and βME. Samples were heated at 95° C. then loaded on a Criterion TGX Stain-free Precast gel. SDS-PAGE was performed at 200 V for forty-two minutes. Protein was transferred to nitrocellulose membrane and blocked in 1×TBS with 1% Casein Blocker for one hour at room temperature shaking. The membrane was probed with HRP-conjugated Rb mAb to human Kappa Light Chain [clone EPR5367-8], diluted 1:10,000 in Casein Blocker, overnight at 4° C. shaking. The membrane was washed three times with PBS-Tween and developed with SuperSignal ELISA Pico Chemiluminescent Substrate. Raw data was analyzed with ImageLab software.
In vivo experiment was performed in two cohorts across two weeks, with Antibody 2-14 included in both cohorts. Antibodies that were tested include Antibody 2-14, Antibody 2-15, Antibody 2-16, Antibody 2-17, Antibody 2-18, Antibody 2-19, Antibody 2-20, and Antibody 2-21. Antibody 2-15 includes a cleavable peptide sequence that is non-cleavable, for use as a negative control.

[2] = tested on: murine tumor, tissue, and plasma conditioned media; experiment: Ex vivo cleavage in murine tumor, tissue, and plasma, CTLA4 ELISA; format: in vitro ADME
Experimental: In another study, ex vivo cleavage in murine tumor, tissue, and plasma was assessed using a CTLA4 ELISA assay. This included the following murine models: C57/B16 (N=9), MC38 in wild type mice (N=9), MC38 in hCTLA4 mice (N=5), MB49 in wild type mice (N=6), MCA205 in wild type mice (N=4), and B16 in wild type mice (N=4). Cleavage in tumors, spleen, liver, kidney, and plasma was assessed. Plasma samples were pooled. Frequency of cleavage and the percentage of the molecule cleaved (median) were calculated.

[3] = tested on: Ki67+ cells in CD4+ cells; experiment: Pharmacodynamic effects in cynomolgus monkeys; conditions: cynomolgus monkey, in vivo
Experimental: In a first set of experiments, cynomolgus monkeys were administered ipilimumab, Antibody 2-6, Antibody 2-10, or an isotype control, and pharmacodynamic (PD) effects were assessed by measuring the percentage (%) of Ki67+ cells in CD4+ cells. In a second set of experiments, cynomolgus monkeys were administered Antibody 2-6, Antibody 2-10, Antibody 2-14, Antibody 2-16, or an isotype control, and pharmacodynamic effects were assessed by measuring the percentage (%) of Ki67+ cells in CD4+ cells.

[4] = In vivo cleavage detection in tumor, liver, kidney, spleen and plasma (western blot) and CTLA4 binding of recovered antibody; design: species or system B-hCTLA-4 transgenic mice; conditions: MB49-bearing B-hCTLA4 transgenic mice; CTLA4-coated MSD plate
Experimental: B-hCTLA-4 transgenic female mice were purchased from Biocytogen and were 8-10 weeks old at the start of study. MC38 colorectal tumor cells (5×10^5 cells per mouse), MB49 bladder cancer cells (1×10^6 cells per mouse) or MCA205 fibrosarcoma cells (1×10^6 cells per mouse) were subcutaneously into the right flank of each mouse. Upon reaching ˜250-500 mm^3 sized tumors (day 0), the mice received a single 10 mg/kg intraperitoneal dose of indicated antibodies. Tumor, liver, kidney, spleen and plasma harvested on day 4 for analysis of cleavage by western blot.
For plasma samples, a direct western blot approach is utilized by separating equal volumes of denatured plasma (1-2 μL input) on a gradient criterion precast gel (BioRad). Separated proteins were then transferred into a nitrocellulose membrane using Turbo Transblot system (BioRad). Membranes were than developed using standard methods for anti-human kappa light chain reactivity with an HRP conjugated antibody (ab202549). Cleavage is assessed visually as the cleaved light chain migrates lower than the un-cleaved light chain with a mass difference of 2 kD.
Protein lysates from tumor, liver, spleen and kidney were generated using Tissue Lyser II (Qiagen) bead homogenizer in RIPA buffer (Pierce, 87788) supplemented with protease and phosphatase inhibitors (Thermo Fisher, 78442). Protein concentrations were determined by BCA assay and 3 mgs of tissue lysate was subjected to immunoprecipitation with biotin conjugated anti-human kappa light chain antibody (LSBio, LS-C351451-500) and streptavidin magnetic beads (Pierce, 88816). Proteins were eluted in 50 μL 10 mM Glycine (pH 2) and neutralized with 1M Tris (pH 8) prior to western blot detection of human kappa light chain as described above.
Studies were also carried out where IgG levels of each antibody administered to MB49-bearing mice was quantified by an ELISA assay and then each sample was assayed in a 3-fold dilution series starting at 1 μg/mL for spleen or 0.04 μg/mL for kidney and liver tissue, on a CTLA4-coated MSD plate to assess CTLA4 binding. These studies included a non-masked parental antibody (Antibody 2-6), masked and cleavable antibodies (e.g., Antibody 2-14 and Antibody 2-16), and a masked but non-cleavable antibody (Antibody 2-10). FIG. 24D is an SDS-PAGE analysis showing the percentage (%) of product cleaved for Antibody 2-14. […] FIG. 24F depicts a heat map of the in vitro cleavage of cleavable peptide substrates by a panel of exemplary proteases.

Molecule	Percentage (%) cleaved molecule ([2]; B16-wt, Kidney (n = 4)) [%]	Percentage (%) cleaved molecule ([2]; B16-wt, Liver (n = 4)) [%]	Percentage (%) cleaved molecule ([2]; B16-wt, Plasma (n = 1)) [%]	Percentage (%) cleaved molecule ([2]; B16-wt, Spleen (n = 4)) [%]	Percentage (%) cleaved molecule ([2]; B16-wt, Tumor (n = 4)) [%]	Percentage (%) cleaved molecule ([2]; C57/B16-wt, Kidney (n = 9)) [%]	Percentage (%) cleaved molecule ([2]; C57/B16-wt, Liver (n = 9)) [%]	Percentage (%) cleaved molecule ([2]; C57/B16-wt, Plasma (n = 2)) [%]	Percentage (%) cleaved molecule ([2]; C57/B16-wt, Spleen (n = 9)) [%]	Percentage (%) cleaved molecule ([2]; MB49-wt, Kidney (n = 6)) [%]	Percentage (%) cleaved molecule ([2]; MB49-wt, Liver (n = 6)) [%]	Percentage (%) cleaved molecule ([2]; MB49-wt, Spleen (n = 6)) [%]	Percentage (%) cleaved molecule ([2]; MB49-wt, Tumor (n = 6)) [%]	Percentage (%) cleaved molecule ([2]; MC38-hCTLA4, Kidney (n = 5)) [%]	Percentage (%) cleaved molecule ([2]; MC38-hCTLA4, Liver (n = 5)) [%]	Percentage (%) cleaved molecule ([2]; MC38-hCTLA4, Plasma (n = 1)) [%]	Percentage (%) cleaved molecule ([2]; MC38-hCTLA4, Spleen (n = 5)) [%]	Percentage (%) cleaved molecule ([2]; MC38-hCTLA4, Tumor (n = 5)) [%]	Percentage (%) cleaved molecule ([2]; MC38-wt, Plasma (n = 1)) [%]	Percentage (%) cleaved molecule ([2]; MCA205-wt, Kidney (n = 4)) [%]	further results
Antibody 2-15: masked Antibody 2-6: mask CPGKGLPSC, non-cleavable peptide GSGGSG; SEQ ID NO: 423 and 421; negative control (protein) light: ACPGKGLPSCGGGSSGGSGGSGGSGSGGEIVLTQSPDFQSVTPKEKVTITCSANSALSYMYWYQQKPDQSPKLWVHGTSNLASGVPSRFSGSGSGTDFTLTINSLEAEDAATYYCHHWSNTQWTFGGGTKVEIKRTVAAPSVFIFPPSDEQLKSGTASVVCLLNNFYPREAKVQWKVDNALQSGNSQESVTEQDSKDSTYSLSSTLTLSKADYEKHKVYACEVTHQGLSSPVTKSFNRGEC heavy: QVQLVQSGAEVKKPGSSVKVSCKASGYTFTNYFMNWVRQAPGQGLEWMGRVDPEQGRADYAEKFKKRVTITADKSTSTAYMELSSLRSEDTAVYYCARRAMDNYGFAYWGQGTLVTVSS[human IgG1 constant region with changes left out here]	3	0	0	0	0	4	2	3	2	2	6	0	5	4	0	0	0	0	0	4	activation in vivo (cleavage in plasma) [1]: not detected; Percentage (%) cleaved molecule ([2]; MCA205-wt, Liver (n = 4)): 2%; Percentage (%) cleaved molecule ([2]; MCA205-wt, Spleen (n = 4)): 12%; Percentage (%) cleaved molecule ([2]; MCA205-wt, Tumor (n = 4)): 2%
Antibody 2-10: masked Antibody 2-6: mask CPFPALELC, non-cleavable peptide GSGGSG; SEQ ID NO: 427 and 421; negative control (protein) light: ACPFPALELCGGGSSGGSGGSGGSGSGGEIVLTQSPDFQSVTPKEKVTITCSANSALSYMYWYQQKPDQSPKLWVHGTSNLASGVPSRFSGSGSGTDFTLTINSLEAEDAATYYCHHWSNTQWTFGGGTKVEIKRTVAAPSVFIFPPSDEQLKSGTASVVCLLNNFYPREAKVQWKVDNALQSGNSQESVTEQDSKDSTYSLSSTLTLSKADYEKHKVYACEVTHQGLSSPVTKSFNRGEC heavy: QVQLVQSGAEVKKPGSSVKVSCKASGYTFTNYFMNWVRQAPGQGLEWMGRVDPEQGRADYAEKFKKRVTITADKSTSTAYMELSSLRSEDTAVYYCARRAMDNYGFAYWGQGTLVTVSS[human IgG1 constant region with changes left out here]	3	1	0	2	0	3	3	5	2	1	7	0	15	3	2	0	0	0	0	1	Percentage (%) cleaved molecule ([2]; MB49-wt, Plasma (n = 1)): 0%; Percentage (%) cleaved molecule ([2]; MC38-wt, Kidney (n = 9)): 1%; Percentage (%) cleaved molecule ([2]; MC38-wt, Liver (n = 9)): 1%; Percentage (%) cleaved molecule ([2]; MC38-wt, Spleen (n = 9)): 3%; Percentage (%) cleaved molecule ([2]; MC38-wt, Tumor (n = 9)): 0%; Percentage (%) cleaved molecule ([2]; MCA205-wt, Liver (n = 4)): 0%; Percentage (%) cleaved molecule ([2]; MCA205-wt, Plasma (n = 1)): 0%; Percentage (%) cleaved molecule ([2]; MCA205-wt, Spleen (n = 4)): 0%; Percentage (%) cleaved molecule ([2]; MCA205-wt, Tumor (n = 4)): 0%; peripheral PD effects, percentage (%) of Ki67+ cells in CD4+ cells [3]: blocks the PD effects associated with Antibody 2-6; binding to CTLA4 of antibody isolated from plasma, kidney, liver, or spleen [4]: reduced binding as compared to the unmasked parental Antibody 2-6
